Experimental data as given in PMC3599065.
No constants are given. Whether binding was seen depends on the method and setting. Binding seen in cells or lysates may run through a third protein. Some entries that bind do so weakly or less than the wild type.

Protein sequences, listed by entry. Tags and fused reporters are not part of them. Residues count along the entry.
UniProt P05067, residues 724-770: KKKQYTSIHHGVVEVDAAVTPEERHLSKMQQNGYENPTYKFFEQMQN

Target: T1, TAP-JIP1-WT (in HEK293T) (mouse) (UniProt Q9WVI9)
T1 sequence: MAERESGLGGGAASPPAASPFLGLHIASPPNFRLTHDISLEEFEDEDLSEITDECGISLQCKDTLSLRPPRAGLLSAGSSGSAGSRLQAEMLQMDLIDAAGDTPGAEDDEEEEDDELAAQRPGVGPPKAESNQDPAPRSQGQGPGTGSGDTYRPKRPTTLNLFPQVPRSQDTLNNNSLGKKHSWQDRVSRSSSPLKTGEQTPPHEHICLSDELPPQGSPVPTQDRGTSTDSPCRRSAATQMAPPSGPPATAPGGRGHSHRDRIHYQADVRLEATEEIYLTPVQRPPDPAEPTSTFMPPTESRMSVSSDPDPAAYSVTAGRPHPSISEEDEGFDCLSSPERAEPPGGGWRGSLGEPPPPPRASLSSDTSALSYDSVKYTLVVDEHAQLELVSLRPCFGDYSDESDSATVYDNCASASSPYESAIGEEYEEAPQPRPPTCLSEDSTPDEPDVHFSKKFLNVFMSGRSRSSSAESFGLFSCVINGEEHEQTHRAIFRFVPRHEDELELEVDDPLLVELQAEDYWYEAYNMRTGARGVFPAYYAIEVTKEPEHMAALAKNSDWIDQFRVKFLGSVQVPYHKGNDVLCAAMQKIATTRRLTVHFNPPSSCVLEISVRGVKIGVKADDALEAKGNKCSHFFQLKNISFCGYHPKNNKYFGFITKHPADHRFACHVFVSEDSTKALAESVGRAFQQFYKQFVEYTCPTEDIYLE
Test: pull-down; lysates of HEK293T cells expressing a TAP-tagged JIP1 or JIP3 construct with V5-KLC, V5-KHC and a GFP-tagged partner (GFP-JIP3, GFP-JIP1, GFP-DLK or GFP-APP-C constructs), precipitated with streptavidin sepharose, western blot

Substance: GFP-APP-C (from UniProt P05067-4 649-695) (domain or fragment)
- binding: binds
